Results reported in the supplement of paper PMC8728848.
The other results are listed elsewhere or left out.

Columns and labels:
Assay in all cases: glycan array binding signal (z-score within array); higher = stronger binding
Conditions in all cases: glycan notation: IUPAC condensed, linker removed
[1] = biological target: Neu5Ac(a2-6)GlcNAc(b1-4)GlcNAc(b1-4)GlcNAc
Procedure, shortened: (§1)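 Glycan array data were curated from 3228 arrays in the Consortium for Functional Glycomics database and kept only where the protein sequence was available. Glycan names were converted to IUPAC-condensed notation, and columns mapping to the same glycan were averaged. The binding signal is a within-array Z-score, averaged across arrays of the same protein sequence at different concentrations or buffers and across linkers. Negative Z-scores can be read as non-binding.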

[2] = biological target: Neu5Ac(a2-8)Neu5Ac
Procedure, shortened: as §1

[3] = biological target: Neu5Ac(a2-8)Neu5Ac(a2-3)Gal(b1-3)GalNAc(b1-4)[Neu5Ac(a2-3)]Gal(b1-4)Glc
Procedure, shortened: as §1

[4] = biological target: Neu5Ac(a2-8)Neu5Ac(a2-3)Gal(b1-3)GalNAc(b1-4)[Neu5Ac(a2-8)Neu5Ac(a2-3)]Gal(b1-4)Glc
Procedure, shortened: as §1

[5] = biological target: Neu5Ac(a2-8)Neu5Ac(a2-3)Gal(b1-4)Glc
Procedure, shortened: as §1

[6] = biological target: Neu5Ac(a2-8)Neu5Ac(a2-3)Gal(b1-4)GlcNAc
Procedure, shortened: as §1

[7] = biological target: Neu5Ac(a2-8)Neu5Ac(a2-3)[Gal(b1-3)GalNAc(b1-4)]Gal(b1-4)Glc
Procedure, shortened: as §1

[8] = biological target: Neu5Ac(a2-8)Neu5Ac(a2-3)[GalNAc(b1-4)]Gal(b1-4)Glc
Procedure, shortened: as §1

[9] = biological target: Neu5Ac(a2-8)Neu5Ac(a2-8)Neu5Ac
Procedure, shortened: as §1

[10] = biological target: Neu5Ac(a2-8)Neu5Ac(a2-8)Neu5Ac(a2-3)Gal(b1-4)Glc
Procedure, shortened: as §1

[11] = biological target: Neu5Ac(a2-8)Neu5Ac(a2-8)Neu5Ac(a2-3)[Gal(b1-3)GalNAc(b1-4)]Gal(b1-4)Glc
Procedure, shortened: as §1

[12] = biological target: Neu5Ac(a2-8)Neu5Ac(a2-8)Neu5Ac(a2-3)[GalNAc(b1-4)]Gal(b1-4)Glc
Procedure, shortened: as §1

[13] = biological target: Neu5Ac(a2-8)Neu5Ac(a2-8)Neu5Ac(a2-8)Neu5Ac(a2-3)[GalNAc(b1-4)]Gal(b1-4)Glc
Procedure, shortened: as §1

[14] = biological target: Neu5Ac(a2-8)Neu5Gc(a2-3)Gal(b1-4)GlcNAc
Procedure, shortened: as §1

[15] = biological target: Neu5Ac(b2-6)Gal(b1-4)GlcNAc
Procedure, shortened: as §1

[16] = biological target: Neu5Ac(b2-6)GalNAc
Procedure, shortened: as §1

[17] = biological target: Neu5Ac9Ac(a2-3)Gal(b1-3)GlcNAc
Procedure, shortened: as §1

[18] = biological target: Neu5Ac9Ac(a2-3)Gal(b1-4)GlcNAc
Procedure, shortened: as §1

[19] = biological target: Neu5Ac9Ac(a2-6)Gal(b1-4)GlcNAc
Procedure, shortened: as §1

[20] = biological target: Neu5Gc(a2-3)Gal(b1-3)GlcNAc
Procedure, shortened: as §1

[21] = biological target: Neu5Gc(a2-3)Gal(b1-3)[Fuc(a1-4)]GlcNAc
Procedure, shortened: as §1

[22] = biological target: Neu5Gc(a2-3)Gal(b1-4)Glc
Procedure, shortened: as §1

[23] = biological target: Neu5Gc(a2-3)Gal(b1-4)GlcNAc
Procedure, shortened: as §1

[24] = biological target: Neu5Gc(a2-3)Gal(b1-4)GlcNAc(b1-3)Gal(b1-4)GlcNAc(b1-2)Man(a1-3)[Neu5Gc(a2-3)Gal(b1-4)GlcNAc(b1-3)Gal(b1-4)GlcNAc(b1-2)Man(a1-6)]Man(b1-4)GlcNAc(b1-4)GlcNAc
Procedure, shortened: as §1

[25] = biological target: Neu5Gc(a2-3)Gal(b1-4)[Fuc(a1-3)]GlcNAc
Procedure, shortened: as §1

[26] = biological target: Neu5Gc(a2-6)Gal(b1-4)GlcNAc
Procedure, shortened: as §1

[27] = biological target: Neu5Gc(a2-6)GalNAc
Procedure, shortened: as §1

[28] = biological target: Neu5Gc(a2-8)Neu5Ac(a2-3)Gal(b1-4)GlcNAc
Procedure, shortened: as §1

[29] = biological target: Neu5Gc(a2-8)Neu5Gc(a2-3)Gal(b1-4)GlcNAc
Procedure, shortened: as §1

[30] = biological target: Neu5Gc(a2-8)Neu5Gc(a2-3)Gal(b1-4)GlcNAc(b1-3)Gal(b1-4)GlcNAc
Procedure, shortened: as §1

[31] = biological target: Neu5Gc(a2-8)Neu5Gc(a2-6)Gal(b1-4)GlcNAc
Procedure, shortened: as §1

[32] = biological target: Neu5Gc(b2-6)Gal(b1-4)GlcNAc
Procedure, shortened: as §1

B1: PX14375l-pdi-526-25-526 (Parabacteroides distasonis) (protein)
chain: DEEPKSTLTDVAYYKTQSQMESNVNYLYRTGAIGSYVDFGSAYIGPFASIQEELTGYFSNSYEGQEIVCRYTRELTRQQNTMQLASKMDKVWDDCYRGINVANGAIKHMPEVPMDQATADRLTAEAKFFRAFNYFYLVKTFGAVPFYTDPYELAENMELPRTETSTIYNQIESDLKDAMNVLPEATFAANGHRITKYVAAMTLTDVYMYQHKYAEAAETVRIVVNSNHKLTTNDDLAMNSAFNKLRSTDDLDEAIYAYEYDNQISPSNWLPTYAFDGDASSNGLFGTYAITQKVHGPNDRYLNIYESNDLRRQPNQFYHWTYTNPKTGKVWNSVGNAACCWYYYDEDALLTTGRGTKDWNVYRYAEALLDAAESIAQSTGVTAEAAGYLAQVKARANMEGKTAAEIASSLQSMGKQAFIEECWTERLRELPLEFKMWDMCVRTGMFPNISETTPGQVTYIPLVGAKNASGATIKESDLLWPLSVNEIQRNPSLTQNEGYSAK
[1]
  glycan array binding signal (z-score): -0.039
[2]
  glycan array binding signal (z-score): -0.205
[3]
  glycan array binding signal (z-score): -0.12
[4]
  glycan array binding signal (z-score): 0.186
[5]
  glycan array binding signal (z-score): -0.15
[6]
  glycan array binding signal (z-score): -0.269
[7]
  glycan array binding signal (z-score): -0.225
[8]
  glycan array binding signal (z-score): 0.169
[9]
  glycan array binding signal (z-score): -0.318
[10]
  glycan array binding signal (z-score): -0.12
[11]
  glycan array binding signal (z-score): -0.27
[12]
  glycan array binding signal (z-score): -0.132
[13]
  glycan array binding signal (z-score): -0.045
[14]
  glycan array binding signal (z-score): 2.74
[15]
  glycan array binding signal (z-score): -0.205
[16]
  glycan array binding signal (z-score): -0.278
[17]
  glycan array binding signal (z-score): -0.476
[18]
  glycan array binding signal (z-score): -0.383
[19]
  glycan array binding signal (z-score): 0.41
[20]
  glycan array binding signal (z-score): -0.223
[21]
  glycan array binding signal (z-score): -0.251
[22]
  glycan array binding signal (z-score): -0.378
[23]
  glycan array binding signal (z-score): -0.059
[24]
  glycan array binding signal (z-score): -0.152
[25]
  glycan array binding signal (z-score): 0.082
[26]
  glycan array binding signal (z-score): -0.438
[27]
  glycan array binding signal (z-score): -0.302
[28]
  glycan array binding signal (z-score): -0.206
[29]
  glycan array binding signal (z-score): -0.27
[30]
  glycan array binding signal (z-score): -0.201
[31]
  glycan array binding signal (z-score): -0.034
[32]
  glycan array binding signal (z-score): 0.191
